Laboratory results reported in patent publication US20190241962A1, “GENETIC SUSCEPTIBILITY DIAGNOSIS AND TREATMENT OF MENTAL DISORDERS” (priority 2016, published 2019).

Test system: CB1 receptor knockout C57Bl/6J mice
Experiment: Open-field test, ambulation behavior, CB1 receptor knockout mice
Format: in vivo
Details: CB1 receptor knockout female mice

Compound	ambulation behavior (BCP 10 mg/kg one hour after PCP)	ambulation behavior (PCP 5 mg/kg vs control group)
C=C1CC/C=C(\C)CC[C@@H]2[C@@H]1CC2(C)C [BCP, beta-caryophyllene]	did NOT reverse this behavior	
c1ccc(C2(N3CCCCC3)CCCCC2)cc1 [PCP, Phencyclidine]		significantly elevated
